This data set deals with ATP. Put plainly: switch fluorescence ratio, 500 uM ATP over buffer (Cy3 cluster intensity, sum of 5 cycles each) (fold (ratio)); higher = stronger signal-on switching upon ATP binding; sequences stand for … in TCGTCGGCAGCGTCAGATGTGTATAAGAGACAGTTTTTTTTTTTTTTTTTTTTTTTTT…TC. The note with it: aptamer strand: ATP DNA aptamer (quencher-CACCTGGGGGAGTATTGCGGAGGAAGG + anchor), 100 nM annealed; ATP concentration: 500 uM; one replicate. The gist of the method:
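Clusters carrying Cy3-labelled switching strands on a modified Illumina MiSeq flow-cell were annealed to 100 nM quencher-labelled ATP aptamer and imaged in selection buffer. They were imaged again after 15 min with 500 uM ATP at 22 °C, over five buffer/ATP cycles with NaOH stripping and re-annealing in between. For each cluster, the fluorescence ratio is the summed Cy3 intensity of the target cycles divided by that of the buffer cycles, averaged per switch-domain sequence. Clusters outside 100-1000 RFU were left out.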

Values marked as one replicate rest on one cluster of the flow cell; about a third of the high ones do not repeat.
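Also: ATP exposure 15 min at 22 °C before imaging.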

Take ATGCGAAACT: the switch fluorescence ratio turned out to be 1.04.

For the sequence GATCATGAGT, the switch fluorescence ratio worked out at 0.981.

As to TCGTTAGTGC, the switch fluorescence ratio was determined as 1.02.

Turning to AACAGCCTGT, the switch fluorescence ratio came out at 1.

In the case of ATACCAGCTG, the switch fluorescence ratio was 1.03.

As for ACAATGCGAG, the switch fluorescence ratio came to 1.1.

As for TGCTTGGAAG, the switch fluorescence ratio was 1.02.

For the sequence TAAGCCCTAA, the switch fluorescence ratio came to 0.997.

Turning to TAGTATACCT, the switch fluorescence ratio is 1.14.

Regarding CCATTGGTGT, the switch fluorescence ratio came out at 1.22.

As for GGAACGATGG, the switch fluorescence ratio amounted to 0.969.

Turning to TGTGGATCCG, the switch fluorescence ratio is 0.994.

As to TCGCCAAGCC, the switch fluorescence ratio came to 1.63.

Turning to CTAAGTACTG, the switch fluorescence ratio worked out at 1.15.

On to TTGCGGTCTC, for which the switch fluorescence ratio is 1.05.

Regarding TACGGACTGC, the switch fluorescence ratio is 1.54.

As for CAGAAAAGGT, the switch fluorescence ratio came to 1.09.

Regarding TAAGGGATAT, the switch fluorescence ratio is 1.

CCCCGTGATG: the switch fluorescence ratio turned out to be 3.06.

On to TCGCTCTCAA, for which the switch fluorescence ratio came out at 1.31.

Consider ACTCATGCGT, for which the switch fluorescence ratio was 1.06.

With TCCTGTGTCA, the switch fluorescence ratio worked out at 1.04.

AGTCCTAAGA: the switch fluorescence ratio stood at 0.986.

Regarding GGTACTGCGA, the switch fluorescence ratio came out at 1.09.

Consider AGGTATTCGG, for which the switch fluorescence ratio amounted to 1.01.

As for AAAGGATGAA, the switch fluorescence ratio came to 0.996.

Take TATAGGACCA: the switch fluorescence ratio came out at 1.02.

Regarding TACGAGATAA, the switch fluorescence ratio turned out to be 1.03.

TTAATGGAGT: the switch fluorescence ratio was determined as 0.987.

As for TAAAACTCTT, the switch fluorescence ratio stood at 1.01.

For the sequence TCCGTTGCAT, the switch fluorescence ratio was 3.89.

On to CTATAACCTC, for which the switch fluorescence ratio worked out at 1.04.

As to GACGTCCGGG, the switch fluorescence ratio came out at 0.989.

In the case of GGCATCTCA, the switch fluorescence ratio is 1.

Take ATAAATCAGG: the switch fluorescence ratio stood at 1.01.

With TCTCCTTGTC, the switch fluorescence ratio turned out to be 1.73.

Take AAGTAAATAT: the switch fluorescence ratio stood at 1.01.

Turning to ATTTAAGTTT, the switch fluorescence ratio amounted to 0.974.

As for TTCGACTTAG, the switch fluorescence ratio amounted to 0.988.

Consider ACGGGCTCCC, for which the switch fluorescence ratio worked out at 1.1.

As to CGCGGTAGGA, the switch fluorescence ratio came to 1.01.

On to GAACTGCCCA, for which the switch fluorescence ratio was found to be 0.982.

Consider GTACCCTCCG, for which the switch fluorescence ratio turned out to be 2.06.

Turning to AATGCGAAAA, the switch fluorescence ratio was 1.01.

As for AACATTTCGG, the switch fluorescence ratio was determined as 1.03.

Turning to TACTTACCCG, the switch fluorescence ratio was determined as 1.27.

Regarding AGTTGTCCGG, the switch fluorescence ratio is 0.983.

CGAAGGCGGG: the switch fluorescence ratio was 1.02.

Take GAGCAAGTCC: the switch fluorescence ratio was determined as 1.65.

On to CGCTTTTTAA, for which the switch fluorescence ratio is 1.06.

Consider TCAGTCGGT, for which the switch fluorescence ratio worked out at 0.958.

As for ACGGGTAGTT, the switch fluorescence ratio came out at 1.01.

As for CGTAGGGCGG, the switch fluorescence ratio worked out at 1.03.

As for TGTGACACTG, the switch fluorescence ratio came out at 1.01.

As for TGTAATTTTT, the switch fluorescence ratio was 1.02.

TCGGTCGCCG: the switch fluorescence ratio was 0.989.

As for AGACACTCA, the switch fluorescence ratio came to 1.1.

In the case of TATTCCTGCT, the switch fluorescence ratio came out at 1.18.

In the case of TTCCATTATA, the switch fluorescence ratio worked out at 1.01.

With TAGCAAACAG, the switch fluorescence ratio stood at 1.07.

Take ACTGGGGTG: the switch fluorescence ratio stood at 1.1.

With AGCCGGCGAC, the switch fluorescence ratio came to 0.966.

With CTCGTGAATA, the switch fluorescence ratio came out at 1.05.

For the sequence CGTCTTTATA, the switch fluorescence ratio was found to be 1.

Consider CGTCCGAGGA, for which the switch fluorescence ratio was determined as 1.07.

Take AACCCATAAC: the switch fluorescence ratio worked out at 1.04.

As for CTGATGAGCG, the switch fluorescence ratio came to 1.01.

For the sequence CTCGATCACA, the switch fluorescence ratio stood at 1.01.

With CGGCCTATTA, the switch fluorescence ratio is 1.03.

In the case of AAAATACCG, the switch fluorescence ratio is 1.09.

As for GGGAGGCCGA, the switch fluorescence ratio turned out to be 1.04.

Turning to TCTTATCTCT, the switch fluorescence ratio came to 1.02.

On to CATATTAAGG, for which the switch fluorescence ratio was found to be 0.941.

TGGCGATCAG: the switch fluorescence ratio was 1.03.

Turning to TTTTATGATA, the switch fluorescence ratio is 0.983.

On to AGGAGCCATG, for which the switch fluorescence ratio stood at 0.982.

ACTGCGACGG: the switch fluorescence ratio was 1.15.

Regarding GAATTACAAA, the switch fluorescence ratio worked out at 0.981.

For the sequence CGTGCTTAGG, the switch fluorescence ratio was found to be 1.

For the sequence TTCTAGTATC, the switch fluorescence ratio was 1.

As to AGATGATTAT, the switch fluorescence ratio worked out at 1.02.

On to CGCCTGTTTT, for which the switch fluorescence ratio came to 1.02.

As to TCCTACAGGA, the switch fluorescence ratio turned out to be 1.06.

Take AGGACTCCCA: the switch fluorescence ratio worked out at 1.23.

On to CGATGATAGC, for which the switch fluorescence ratio is 1.05.

Turning to CTTCGGGTTG, the switch fluorescence ratio worked out at 1.02.

For the sequence CTGCGGGTGG, the switch fluorescence ratio is 1.01.

Turning to TGGTGTGGCA, the switch fluorescence ratio turned out to be 0.937.

Regarding GTAACCAGCC, the switch fluorescence ratio is 1.73.

For the sequence TCGAACACA, the switch fluorescence ratio turned out to be 1.04.

As to CTCAAAAACC, the switch fluorescence ratio amounted to 0.998.

As to TTTTATTGC, the switch fluorescence ratio worked out at 0.951.

ATCCCCTCGA: the switch fluorescence ratio turned out to be 0.981.

With TAATCTGTCT, the switch fluorescence ratio was 0.982.

Regarding CGGTAGGTTC, the switch fluorescence ratio was 1.02.

Turning to GACGCCAGAA, the switch fluorescence ratio amounted to 1.22.

With ACTGGAGTGG, the switch fluorescence ratio was determined as 0.979.

Take ACCTGGGAA: the switch fluorescence ratio was found to be 0.884.

For the sequence GATTGCCCCA, the switch fluorescence ratio came out at 1.03.

With AATGTTAGAT, the switch fluorescence ratio amounted to 1.01.

As for GCGTCCTCGG, the switch fluorescence ratio amounted to 0.991.

GGCAGAAGAG: the switch fluorescence ratio is 1.06.

Turning to TAAGGTATAT, the switch fluorescence ratio turned out to be 1.01.

On to GTGTGATA, for which the switch fluorescence ratio was 1.04.

As to TTTGACCCGA, the switch fluorescence ratio came to 1.02.

On to GACGTGTTAG, for which the switch fluorescence ratio turned out to be 1.03.

On to TATCACAGGT, for which the switch fluorescence ratio is 1.14.

TAACTTAGAT: the switch fluorescence ratio amounted to 0.964.

In the case of GTGGAAGGA, the switch fluorescence ratio was determined as 0.969.

Regarding CACCTGCATA, the switch fluorescence ratio came out at 1.7.

As for GCCCACAATA, the switch fluorescence ratio came out at 1.53.

Consider GCACCCAAGG, for which the switch fluorescence ratio came to 1.25.

In the case of TGAGTACAC, the switch fluorescence ratio was 0.978.

On to TCAGTTTGT, for which the switch fluorescence ratio is 0.947.

For TTTGCTCTAT, the switch fluorescence ratio was determined as 1.

For the sequence ATCACCGATC, the switch fluorescence ratio is 1.03.

For AGAGTAATGC, the switch fluorescence ratio was determined as 1.17.

Regarding TTATACTTGG, the switch fluorescence ratio amounted to 0.994.

As to TGTGGCAGCC, the switch fluorescence ratio was 0.984.

With CATCGTCGCC, the switch fluorescence ratio turned out to be 0.967.
